In PubChem BioAssay AID1347055 (National Center for Advancing Translational Sciences (NCATS), 2019):
Several values for one entry are separate records, joined by “and”; a condition that tells them apart may be missing. Equal entries are not always repeated. Out of some 54,000 compounds screened, about 120 (0.22%) were called active. Inconclusive results, whose numbers are uncertain, are shown with a selection of clear calls. Calls follow the shape of the dose curve; as a rule, active = well fitted inhibition curve with a large enough effect; inconclusive = small, poorly fitted or top-dose-only effect, or effect the other way; inactive = flat fitted curve, though single readings scatter. A potency beside an inconclusive call is a rough fit, not a confirmed value.

target: Fumarate hydratase, mitochondrial (Homo sapiens) (UniProt P07954); experiment: Identification of activators of human fumarate hydratase by quantitative high-throughput screening; conditions: FH coupled MDH/diaphorase resazurin fluorescence, 15 min; activity change, negative = inhibition: at 79.9 µM (top of the series); also: the screen sought activators but most active calls are inhibition curves; nearly all actives have a fitted effect of over 45% in size
% is scaled to controls: 0 for no effect and ±100 for the full control effect; potency is read from the fitted curve at half-maximal effect; tags tell the direction and shape of the fitted curve.

Sequence of UniProt P07954 (P07954 whole entry, looked up): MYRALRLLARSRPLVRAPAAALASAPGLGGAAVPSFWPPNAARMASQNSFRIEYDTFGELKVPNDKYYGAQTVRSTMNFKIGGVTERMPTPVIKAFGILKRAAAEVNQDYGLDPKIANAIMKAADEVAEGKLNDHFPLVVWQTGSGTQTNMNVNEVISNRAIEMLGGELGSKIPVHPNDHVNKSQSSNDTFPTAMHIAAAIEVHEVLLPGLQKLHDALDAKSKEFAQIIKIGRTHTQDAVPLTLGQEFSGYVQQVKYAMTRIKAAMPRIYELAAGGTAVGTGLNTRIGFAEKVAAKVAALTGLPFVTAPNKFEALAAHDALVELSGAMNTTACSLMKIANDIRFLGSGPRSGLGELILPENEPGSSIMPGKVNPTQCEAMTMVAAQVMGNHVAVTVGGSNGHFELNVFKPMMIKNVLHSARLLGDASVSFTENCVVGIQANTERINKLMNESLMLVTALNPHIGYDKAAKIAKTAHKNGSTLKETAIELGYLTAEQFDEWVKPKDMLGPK

Row | SMILES | Potency | activity change, negative = inhibition
1 | COc1ccc(NC(=O)c2c(NC(=O)c3ccc(Br)cc3)sc3c2CCCC3)cc1 | inconclusive: 28.2 µM [inhibitor, partial curve, poor fit] | 
2 | CCN(CC)Cc1ccc(C(=O)N(CCc2ccccc2OC)[C@@H]2CCNC2)cc1 |  | inactive: -3.28% [at 53.3 µM]
3 | Oc1ccc(/C=C/c2cc(O)cc(O)c2)cc1 | inconclusive: 27.6 µM [inhibitor, partial curve] | 
4 | Cc1ccc(N(CC(=O)Nc2cccc(Cl)c2)S(=O)(=O)c2cccs2)cc1 | inconclusive: 39.8 µM [inhibitor, partial curve] | 
5 | COc1cc(C(=O)N2CCc3c([nH]c4ccccc34)C2c2ccc(C)cc2)cc(OC)c1OC (centres undefined) | inconclusive: 22.4 µM [inhibitor, partial curve, poor fit] | 
6 | O=C1C=CC2OC(c3ccccc3)C(O)C2O1 (centres undefined) |  | inactive: 0.0824%
7 | COc1ccc(NC(=O)Cn2cnc3ccc(S(=O)(=O)N4CCC(C)CC4)cc3c2=O)cc1OC |  | inactive: -16%
8 | Cc1c(-c2ccnc(Nc3cc(Br)cc(C(F)(F)F)c3)n2)sc(=O)n1C |  | inactive: 7.9%
9 | Cc1ccc(S(=O)(=O)c2nnn3c2nc(N2CCCC2)c2sccc23)cc1 |  | inactive: 14.5%
10 | CC(C)(C)Nc1nc(Nc2ccc(C(N)=O)cc2)cc(N)c1C#N |  | inactive: -16.6%
11 | Oc1c(Cl)cc(Cl)c(Cl)c1Cc1c(O)c(Cl)cc(Cl)c1Cl | inconclusive: 27.6 µM [inhibitor, partial curve] | 
12 | Cc1c(NC(=O)C(C)(C)Oc2ccc(Cl)cc2)cccc1-c1nc2ncccc2o1 | inconclusive: 22.4 µM [inhibitor, partial curve] | 
13 | COC(=O)c1sccc1S(=O)(=O)N(CC(=O)Nc1c(C)cccc1C)c1ccc(C)c(C)c1 | inconclusive: 28.2 µM [inhibitor, partial curve, poor fit] | 
14 | CCOc1cc2ncc(C#N)c(Nc3ccc(F)c(Cl)c3)c2cc1NC(=O)/C=C/CN(C)C |  | inactive: -29.3%
15 | CCCc1c(-c2ccc(O)cc2)nn(-c2ccc(O)cc2)c1-c1ccc(O)cc1 | inconclusive: 28.2 µM [inhibitor, single point] | 
16 | CCN(CCCNC(=O)CSc1cc(=O)n(CC)c2ccccc12)c1cccc(C)c1 | inconclusive: 35.5 µM [inhibitor, partial curve, poor fit] | 
17 | Cc1cccc(N2CCN(c3ccc(C(=O)O)cc3NC(=O)c3ccccc3F)CC2C)c1 (centres undefined) | inconclusive: 50.1 µM [inhibitor, single point] | 
18 | CN(CC(=O)N(Cc1ccc(C2CCCCC2)cc1)c1ccc(C(=O)O)cc1)S(=O)(=O)c1c(F)c(F)c(F)c(F)c1F | inconclusive: 35.5 µM [inhibitor, partial curve, poor fit] | 
19 | Cc1ccc(NC(=O)CSc2[nH]c(=O)ncc2C)cc1 |  | inactive: -10.8%
20 | O=C(Nc1nonc1-c1ccc(Br)cc1)c1ccco1 |  | inactive: 7.68%
21 | N#Cc1cccc(-c2c[nH]c3ncnc(N4CCOCC4)c23)c1 |  | inactive: -4.1%
22 | COc1ccc(-n2c(=O)[nH]c3cc(C(=O)NCc4ccc(Cl)cc4)sc3c2=O)nc1OC | inconclusive: 35.5 µM [inhibitor, single point] | 

Row | SMILES | Potency | activity change, negative = inhibition
23 | Cc1cn(CCN2CCN(c3ccccc3-c3cc(C#N)cc(C(=O)NCCCN4CCCC4)c3)CC2)c2ccccc12 |  | inactive: -5.7%
24 | O=C(CCc1ccc(O)cc1)c1c(O)cc(O)cc1O | inconclusive: 22.4 µM [inhibitor, single point] | 
25 | COc1ccc(-n2c(=O)c3ccc(C(=O)NCc4ccc(C)cc4)cc3n(CC(=O)Nc3ccc(C)cc3)c2=O)cc1 |  | inactive: 11.6%
26 | COc1cc(-c2nc3ccc(C)cn3c2Nc2ccc(Cl)cc2)ccc1O | inconclusive: 39.8 µM [inhibitor, partial curve] | 
27 | COc1cc(C(=O)N2CCc3c([nH]c4ccccc34)C2c2ccccc2)cc(OC)c1OC (centres undefined) | inconclusive: 35.5 µM [inhibitor, partial curve, poor fit] | 
28 | CCCCOC(=O)c1ccc(NC(=O)Cc2coc3ccc(C(C)C)cc23)cc1 | inconclusive: 44.7 µM [inhibitor, partial curve, poor fit] | 
29 | Cc1nc(SCC(=O)Nc2ccc(Br)cc2)[nH]c(=O)c1Cc1ccccc1 |  | inactive: 3.33%
30 | CC(C)c1ccc(Nc2c(-c3ccccc3O)nc3cnccn23)cc1 | inconclusive: 31.6 µM [inhibitor, partial curve, poor fit] | 
31 | CC(=O)N1CCc2c(sc3c2c(=O)n(-c2ccc(C)cc2)c(=O)n3CC(=O)Nc2ccccc2)C1 |  | inactive: -12.8%
32 | O=C(NCCc1ccc(Cl)cc1)c1ccc(CS(=O)(=O)Cc2ccccc2F)o1 |  | inactive: -16.6%
33 | Nc1ccn([C@@H]2C(F)=C(CO)[C@@H](O)[C@H]2O)c(=O)n1 |  | inactive: -2.87%
34 | CN1CCN(CCCN2c3ccccc3Sc3ccc(C(F)(F)F)cc32)CC1 | inactive and inconclusive: 39.8 µM [inhibitor, single point] | 
35 | CC1=C(C(=O)OCc2ccc(C)cc2)C(c2ccccc2Cl)CC(=O)N1 (centres undefined) | inconclusive: 39.8 µM [inhibitor, partial curve, poor fit] | 
36 | O=C(NCc1ccccc1)c1csc(Nc2ccncn2)n1 | inactive | 
37 | COc1ccc(-c2noc(N3CCN(c4cccc(C)c4C)CC3)n2)cc1OC | inconclusive: 35.5 µM [inhibitor, single point] | 
38 | COc1ccccc1C(=O)Nc1nnc(SCc2cc(=O)n3ccc(C)cc3n2)s1 | active: 1.12 µM | 
39 | Cc1oc(-c2ccc(C(=O)NCc3ccccc3)cc2)nc1CS(=O)(=O)c1ccccc1 |  | inactive: -2.01%
40 | COc1ccc(OC)c(NC(=O)CSc2c3c(nc4ccccc24)CCCC3)c1 | inconclusive: 31.6 µM [inhibitor, partial curve] | 
41 | CCn1c(C(=O)NCc2cccc(Br)c2)cc2oc3ccccc3c21 | inconclusive: 22.4 µM [inhibitor, partial curve] | 
42 | Cc1occc(=O)c1O[C@@H]1O[C@H](CO)[C@@H](O)[C@H](O)[C@H]1O |  | inactive: 0.587%
43 | Clc1ccc2ncc(-c3cccc(NC4CCNCC4)n3)n2c1 |  | inactive: 5.21%
44 | Cc1ccccc1OCC(=O)OCc1cc(=O)n2ccsc2n1 | inconclusive: 50.1 µM [inhibitor, single point] | 
